Structures are written as SMILES. Where a name gives a salt, the structure may show the parent alone. Repeats are few or missing, and single values can be far off. *1 amine or outer side, *2 acyl side, *3 side chain or, on linkers, in order; H or OH if unused. Where a SMILES comes first, the peptide text is derived from it. Bridges are numbered along the chain shown (N, C = ends). Roman numbers before positions name the chains, in order. [ ]: non-standard residue; d: D form. Actinocin(9to1) = Cc1c2oc3c(C)ccc(C(=O)[*:1])c3nc-2c(C(=O)[*:2])c(N)c1=O; NMeV = CN[C@H](C(=O)O)C(C)C; Sar = CNCC(=O)O A value given as a limit tells only on which side of the number the result lay.

The values below come from the supplement of paper PMC11171410.

One test relates to SUDHL6 parental. In words: estimated IC50 (cell viability); higher = less potent.
Test [1] has as its system SUDHL6 venetoclax-resistant. Described as above.
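Also: compound screen comparing venetoclax-resistant SUDHL6, derived by months of escalating venetoclax exposure, with its matched parental line, IC50 from one-site nonlinear dose–response fit, geometric mean for duplicated compounds.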

In the case of `Cc1c(CN2CCN(C(=O)[C@H](C)O)CC2)sc2c(N3CCOCC3)nc(-c3cnc(N)nc3)nc12` [Apitolisib (GDC-0980, RG7422)], the “estimated IC50” value is 8.1 µM with SUDHL6 parental and 2.7 µM in test [1].

`C=CC(=O)Nc1cccc(Oc2nc(Nc3ccc(N4CCN(C)CC4)c(F)c3)nc3[nH]ccc23)c1` [Avitinib (AC0010)]: the “estimated IC50” value was 7.93 µM with SUDHL6 parental and 4.25 µM in test [1].

As for `CNC(=O)c1ccccc1Sc1ccc2c(/C=C/c3ccccn3)n[nH]c2c1` [Axitinib], the “estimated IC50” value in the test with SUDHL6 parental was 8.51 µM; in test [1] it was 2.61 µM.

As for `Cc1cc(-c2nc(-c3ccc(OC(F)(F)F)cc3)no2)nn1Cc1ccnc(N2CCN(C3CC3)CC2)c1` [BAY 87-2243], the “estimated IC50” value with SUDHL6 parental is 0.01 µM; in test [1] it was 0.005 µM.

Regarding `COc1ccc(-c2ccc3ncc4c(c3c2)n(-c2ccc(N3CCNCC3)c(C(F)(F)F)c2)c(=O)n4C)cn1` [BGT226 (NVP-BGT226)], the “estimated IC50” value in the test with SUDHL6 parental is 0.1 µM; in test [1], 0.03 µM.

`CC[C@@H]1C(=O)N(C)c2cnc(Nc3ccc(C(=O)NC4CCN(C)CC4)cc3OC)nc2N1C1CCCC1` [BI 2536]: the “estimated IC50” value with SUDHL6 parental was 0.12 µM; in test [1] it was 0.04 µM.

For the compound `COc1c(C)cnc(Cn2cnc3c(Cl)nc(N)nc32)c1C` [BIIB021], the “estimated IC50” value with SUDHL6 parental is 4.01 µM; in test [1] it was 1.03 µM.

Take `O=C(Nc1cccc(Nc2ncc(Br)c(NCCc3cnc[nH]3)n2)c1)N1CCCC1` [BX-912]: the “estimated IC50” value is 9.64 µM with SUDHL6 parental and 5.57 µM in test [1].

On to `C=C[C@@](C)(/C=C/c1ccc(O)cc1)CCC=C(C)C` [Bakuchiol], for which the “estimated IC50” value in the test with SUDHL6 parental was 4.77 µM; in test [1], 2.58 µM.

For `Nc1cc(C(F)(F)F)c(-c2nc(N3CCOCC3)nc(N3CCOCC3)n2)cn1` [Bimiralisib (PQR309)], the results for the “estimated IC50” value (in the test on SUDHL6 parental; in test [1]) were 3.11 µM and 1.92 µM, respectively.

Take `Cn1cc(C2=C(c3cn(CCCSC(=N)N)c4ccccc34)C(=O)NC2=O)c2ccccc21` [Bisindolylmaleimide IX (Ro 31-8220 Mesylate)]: the “estimated IC50” value with SUDHL6 parental is 6.1 µM; in test [1] it was 3.9 µM.

For the compound `C=CC(=O)Nc1ccc2[nH]c(=O)n(C3CCN(Cc4ccc(-c5nc6cc[nH]c(=O)c6cc5-c5ccccc5)cc4)CC3)c2c1` [Borussertib], the “estimated IC50” value in the test with SUDHL6 parental is 5.32 µM; in test [1] it was 0.72 µM.

Regarding `CC1(C)CC(Oc2ccc(-c3ccc(-c4cn[nH]c4)cc3O)nn2)CC(C)(C)N1` [Branaplam (LMI070)], the “estimated IC50” value is 6.06 µM with SUDHL6 parental and 0.34 µM in test [1].

As to `COc1cc(OC)c(/C=C/S(=O)(=O)Cc2ccc(OC)c(OP(=O)(O)O)c2)c(OC)c1` [Briciclib], the “estimated IC50” value with SUDHL6 parental is 0.059 µM; in test [1] it was 0.039 µM.

On to `Nc1cc(C(F)(F)F)c(-c2cc(N3CCOCC3)nc(N3CCOCC3)n2)cn1` [Buparlisib (BKM120, NVP-BKM120)], for which the “estimated IC50” value in the test with SUDHL6 parental was 4.5 µM; in test [1], 2.23 µM.

For `O=C(Cc1cccc(OC(F)(F)F)c1)Nc1ccc(CCCCc2nnc(NC(=O)Cc3ccccn3)s2)nn1` [CB-839], the “estimated IC50” value is 2.46 µM with SUDHL6 parental and 1.23 µM in test [1].

`Cc1cc2c(C(N)=O)cccc2n1-c1nc2c(c(NCc3ccccc3)n1)COCC2` [CB-5083]: the figures for the “estimated IC50” value (with SUDHL6 parental; in test [1]) were 0.48 µM and 0.32 µM, respectively.

Turning to `CC1(C)CC[C@]2(C(=O)n3ccnc3)CC[C@]3(C)[C@H](C(=O)C=C4[C@@]5(C)C=C(C#N)C(=O)C(C)(C)[C@@H]5CC[C@]43C)[C@@H]2C1` [CDDO-Im], the “estimated IC50” value with SUDHL6 parental was 3.41 µM; in test [1], 2 µM.

Regarding `O=C(NC(NC(=S)Nc1ccc(F)c([N+](=O)[O-])c1)C(Cl)(Cl)Cl)C(c1ccccc1)c1ccccc1` (centres undefined) [CGK 733], the figures for the “estimated IC50” value (with SUDHL6 parental; in test [1]) were over 10 µM and 3.4 µM, respectively.

Take `O=c1[nH]c2ccc(Cl)cc2c(N[C@@H]2CN3CCC2CC3)c1-c1nc2ccccc2[nH]1` [CHIR-124]: the “estimated IC50” value is 4.5 µM in the test with SUDHL6 parental and 3 µM in test [1].

Regarding `COc1ccc(-c2nc(N3CCOCC3)c3sc(CN(C)c4ncc(C(=O)NO)cn4)cc3n2)cn1` [CUDC-907], the “estimated IC50” value in the test on SUDHL6 parental was 0.03 µM; in test [1], 0.02 µM.

As for `COc1ccc(CNc2nc(N(CCO)CCO)nc3c2ncn3C(C)C)cc1` [CVT-313], the results for the “estimated IC50” value (in the test with SUDHL6 parental; in test [1]) were 4.7 µM and 2.5 µM, respectively.

With `Cc1nc(N)sc1-c1ccnc(Nc2ccc(N3CCOCC3)cc2)n1` [CYC116], the “estimated IC50” value was 5.45 µM in the test on SUDHL6 parental and 1.75 µM in test [1].

On to `CCNC(=O)Nc1ccc(-c2nc(N3CCOC[C@@H]3C)c3c(n2)C(C)(C)S(=O)(=O)C3)cc1` [CZ415], for which the “estimated IC50” value is 1.33 µM with SUDHL6 parental and 0.66 µM in test [1].

With `CO[C@H]1C(=O)[C@]2(C)[C@@H](OC)C[C@H]3OC[C@@]3(OC(C)=O)[C@H]2[C@H](OC(=O)c2ccccc2)[C@]2(O)C[C@H](OC(=O)[C@H](O)[C@@H](NC(=O)OC(C)(C)C)c3ccccc3)C(C)=C1C2(C)C` [Cabazitaxel], the “estimated IC50” value is 0.083 µM in the test on SUDHL6 parental and 0.0168 µM in test [1].

Turning to `O=C(/C=C/c1ccc(O)c(O)c1)OCCc1ccccc1` [Caffeic Acid Phenethyl Ester], the “estimated IC50” value in the test on SUDHL6 parental is 8.08 µM; in test [1], 3.62 µM.

Regarding `Nc1nc(Cl)nc2c1ncn2[C@@H]1O[C@H](CO)[C@@H](O)[C@@H]1F` [Clofarabine], the “estimated IC50” value in the test with SUDHL6 parental is 6.98 µM; in test [1], 3.34 µM.

Take `COc1cc2c(c(OC)c1OC)-c1ccc(OC)c(=O)cc1[C@@H](NC(C)=O)CC2` [Colchicine]: the “estimated IC50” value is 0.0672 µM in the test with SUDHL6 parental and 0.0396 µM in test [1].

In the case of `Nc1cccc(S(=O)(=O)N2CCCN(S(=O)(=O)c3ccc4c(c3)OCCO4)CC2)c1` [DASA-58], the “estimated IC50” value with SUDHL6 parental was 8.03 µM; in test [1], 3.9 µM.

In the case of `Cc1ccc(CNc2ccc(Cl)cc2NCc2ccc(C)c(O)c2)cc1O` [DRB18], the “estimated IC50” value was 9.78 µM with SUDHL6 parental and 6.19 µM in test [1].

On to `Cc1c2oc3c(C)ccc(C(=O)N[C@@H]4C(=O)N[C@H](C(C)C)C(=O)N5CCC[C@H]5C(=O)N(C)CC(=O)N(C)[C@@H](C(C)C)C(=O)O[C@@H]4C)c3nc-2c(C(=O)N[C@@H]2C(=O)N[C@H](C(C)C)C(=O)N3CCC[C@H]3C(=O)N(C)CC(=O)N(C)[C@@H](C(C)C)C(=O)O[C@@H]2C)c(N)c1=O` [Dactinomycin] (I: T[dV]P[Sar][NMeV] / II: T[dV]P[Sar][NMeV]; ester I:1-I:C, II:1-II:C; linker I:N-II:N via Actinocin(9to1)), for which the “estimated IC50” value with SUDHL6 parental is over 10 µM; in test [1], 2.26 µM.

With `Cc1cc(C)c(Nc2ccnc(Nc3ccc(C#N)cc3)n2)c(C)c1` [Dapivirine (TMC120)], the “estimated IC50” value with SUDHL6 parental is 8.36 µM; in test [1], 4.64 µM.

For the compound `Cc1nc(Nc2ncc(C(=O)Nc3c(C)cccc3Cl)s2)cc(N2CCN(CCO)CC2)n1` [Dasatinib], the “estimated IC50” value in the test with SUDHL6 parental is 0.29 µM; in test [1], 0.1 µM.

For `COc1cccc2c1C(=O)c1c(O)c3c(c(O)c1C2=O)C[C@@](O)(C(C)=O)C[C@@H]3O[C@H]1C[C@H](N)[C@H](O)[C@H](C)O1` [Daunorubicin HCl], the figures for the “estimated IC50” value (with SUDHL6 parental; in test [1]) were 0.69 µM and 0.32 µM, respectively.

Consider `COc1cccc2c1C(=O)c1c(O)c3c(c(O)c1C2=O)C[C@@](O)(C(C)=O)C[C@@H]3O[C@H]1C[C@H](N)[C@H](O)[C@H](C)O1` [Daunorubicin hydrochloride], for which the “estimated IC50” value was over 10 µM in the test on SUDHL6 parental and 6.23 µM in test [1].

For the compound `O=C(O)c1ccc(-n2nc(-c3ccccc3O)nc2-c2ccccc2O)cc1` [Deferasirox], the “estimated IC50” value in the test with SUDHL6 parental is 8.8 µM; in test [1] it was 5.2 µM.

In the case of `CNC(=O)c1cc(Oc2ccc(NC(=O)Nc3ccc(Cl)c(C(F)(F)F)c3)cc2)ccn1` [Donafenib (Sorafenib D3)], the “estimated IC50” value in the test on SUDHL6 parental was 6.17 µM; in test [1], 2.23 µM.

`CN(C)C(=S)NN=C(c1ccccn1)c1ccccn1` [Dp44mT]: the “estimated IC50” value in the test with SUDHL6 parental was 0.083 µM; in test [1] it was 0.043 µM.

`CCCCc1oc2ccc(NS(C)(=O)=O)cc2c1C(=O)c1ccc(OCCCN(CCCC)CCCC)cc1` [Dronedarone HCl]: the “estimated IC50” value in the test with SUDHL6 parental was 6.2 µM; in test [1], 3 µM.

Consider `C[C@H](Nc1ncnc2nc[nH]c12)c1cc2cccc(Cl)c2c(=O)n1-c1ccccc1` [Duvelisib (IPI-145, INK1197)], for which the “estimated IC50” value in the test on SUDHL6 parental is 0.385 µM; in test [1], 0.104 µM.

With `C[C@H](Nc1ncnc2nc[nH]c12)c1cc2cccc(Cl)c2c(=O)n1-c1ccccc1` [Duvelisib (R enantiomer)], the “estimated IC50” value in the test with SUDHL6 parental was over 10 µM; in test [1], 6.41 µM.

With `Cc1cc(Nc2cc(N3CCN(C)CC3)nc(/C=C/c3ccccc3)n2)n[nH]1` [ENMD-2076], the “estimated IC50” value in the test with SUDHL6 parental was 6.28 µM; in test [1], 4 µM.

Consider `CCOc1cc(C(=O)N2CCC(N3CCN(C)CC3)CC2)ccc1Nc1ncc2c(n1)N(C1CCCC1)c1ccccc1C(=O)N2C` [ERK5-IN-1], for which the “estimated IC50” value in the test with SUDHL6 parental is over 10 µM; in test [1] it was 4.6 µM.

In the case of `CC/C(=C(\c1ccc(O)cc1)c1ccc(OCCNC)cc1)c1ccccc1` [Endoxifen HCl], the “estimated IC50” value with SUDHL6 parental was over 10 µM; in test [1], 3.58 µM.

Turning to `CN1CCN(c2ccc(C(=O)Nc3n[nH]c4ccc(Cc5cc(F)cc(F)c5)cc34)c(NC3CCOCC3)c2)CC1` [Entrectinib (RXDX-101)], the entries for the “estimated IC50” value (in the test with SUDHL6 parental; in test [1]) were 6.94 µM and 4.11 µM, respectively.

With `CO[C@H]1C[C@@H]2CC[C@@H](C)[C@@](O)(O2)C(=O)C(=O)N2CCCC[C@H]2C(=O)O[C@H]([C@H](C)C[C@@H]2CC[C@@H](OCCO)[C@H](OC)C2)CC(=O)[C@H](C)/C=C(\C)[C@@H](O)[C@@H](OC)C(=O)[C@H](C)C[C@H](C)/C=C/C=C/C=C/1C` [Everolimus (RAD001)], the results for the “estimated IC50” value (in the test with SUDHL6 parental; in test [1]) were 2.38 µM and 1.31 µM, respectively.

For `CO[C@H]1C[C@@H]2CC[C@@H](C)[C@@](O)(O2)C(=O)C(=O)N2CCCC[C@H]2C(=O)O[C@H]([C@H](C)C[C@@H]2CC[C@@H](OCCO)[C@H](OC)C2)CC(=O)[C@H](C)/C=C(\C)[C@@H](O)[C@@H](OC)C(=O)[C@H](C)C[C@H](C)/C=C/C=C/C=C/1C` [Everolimus], the “estimated IC50” value in the test with SUDHL6 parental is over 10 µM; in test [1], 4.89 µM.
